# PubChem BioAssay AID2675 (National Center for Advancing Translational Sciences (NCATS), 2010)
# Out of some 280,000 compounds screened, about 100 (0.036%) were called active. The inconclusive results got no clear call from the source; some entries with a clear call stand among them for comparison. The call rests on the fitted dose curve; in most records, active means well fitted inhibition curve with a large enough effect in the signal ratio, with a control signal flat (not every such curve was filed as active); inconclusive means small, poorly fitted or top-dose-only effect, or effect the other way, or a change in a side signal; inactive means no such curve, though single readings can be large or run the other way; the % refers to the signal ratio. Potencies beside an inconclusive call are fits to weak or partial responses and may not hold up. “Side channel” marks fits to a control or component signal instead of the main read-out.
# Biological target: Muscleblind-like protein 1 (Homo sapiens) (UniProt Q9NR56)
# Chain of UniProt Q9NR56 (Q9NR56 whole entry, looked up): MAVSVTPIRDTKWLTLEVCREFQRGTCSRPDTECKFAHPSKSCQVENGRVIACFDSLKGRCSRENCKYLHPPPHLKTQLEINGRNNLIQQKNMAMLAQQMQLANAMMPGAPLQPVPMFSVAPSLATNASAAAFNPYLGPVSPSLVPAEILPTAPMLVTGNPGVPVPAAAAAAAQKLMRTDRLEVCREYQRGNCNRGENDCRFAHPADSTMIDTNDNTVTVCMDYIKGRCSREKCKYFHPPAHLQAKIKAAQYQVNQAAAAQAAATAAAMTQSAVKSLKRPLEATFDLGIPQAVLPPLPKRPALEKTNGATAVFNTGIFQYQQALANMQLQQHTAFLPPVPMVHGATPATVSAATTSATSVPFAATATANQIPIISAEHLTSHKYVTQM
# Test: qHTS Assay for Inhibitors of MBNL1-poly(CUG) RNA binding
# Conditions: TR-FRET MBNL1-His/biotin-(CUG)12 binding, 665/545 ratio; activity change, negative = inhibition: at 57.5 µM (top of the series)
# Outline: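 Ratiometric TR-FRET (665 over 545 nm, excitation 340 nm) tracks disruption of MBNL1-His/biotin-(CUG)12 complex after 60 min at room temperature, with compounds at 92 nM to 58 uM final.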
# On the % scale 0 is the no-effect control and ±100 the full control effect; potency means the concentration at half of the fitted maximal effect; tags describe the fitted curve by direction and shape or compound fluorescence and quenching.
SMILES,Potency,"activity change, negative = inhibition"
Nc1ccc(S(=O)(=O)c2ccc(N)cc2)cc1,"inconclusive: 20 µM [inhibitor, single point]",
COc1ccccc1NC(=S)NC(=O)CCc1ccccc1,,inactive: -5.06%
O=C(N/N=C/c1cccc([N+](=O)[O-])c1O)C(O)(c1ccccc1)c1ccccc1,"inconclusive: 10 µM [quencher, partial curve]",
CC(SC1=NCCN1S(=O)(=O)c1ccc(F)cc1)c1ccccc1 (stereo unspecified),"inconclusive: 0.794 µM [quencher, side channel, single point]",
Cc1cc(C)c2c(=O)n(CC(=O)Nc3ccc(Cl)cc3)sc2n1,,inactive: 5.93%
CCCOc1ccc(-c2c(C(=O)N/N=C/c3ccncc3)nnn2-c2nonc2N)cc1,"inconclusive: 12.6 µM [quencher, side channel, partial curve]",
CCOc1ccc(OCC)c(NS(=O)(=O)c2cccc3nsnc23)c1,"inconclusive: 20 µM [quencher, side channel, partial curve]",
Cc1cc(/C=C(\C#N)C(=O)NCc2cccs2)c(C)n1-c1ccccc1F,,inactive: 2.6%
CC1CC(C)CN(C(=O)c2ccc3c(c2NCCO)C(=O)c2ccccc2C3=O)C1 (stereo unspecified),"inconclusive: 11.2 µM [quencher, side channel, partial curve]",
O=C(Nc1ccc([N+](=O)[O-])cn1)C1CC2CCC1C2 (stereo unspecified),"inconclusive: 28.2 µM [quencher, side channel, partial curve]",
Cc1cccc(NC(=O)CCNS(=O)(=O)c2cccc3nonc23)c1C,"inconclusive: 17.8 µM [quencher, side channel, partial curve]",
CC(NC(=O)c1cc2cc([N+](=O)[O-])ccc2oc1=O)C1CCCO1 (stereo unspecified),"inconclusive: 3.16 µM [quencher, side channel, full curve]",
N#C/C(=C\c1ccccc1)C(=O)Nc1nncs1,"inconclusive: 31.6 µM [fluorescent, side channel, single point]",
O=C(CCCn1cnc([N+](=O)[O-])n1)Nc1cccc(O)c1,"inconclusive: 25.1 µM [quencher, side channel, single point]",
CCn1c2ccccc2c2nnc(SCC(=O)Nc3c(C)n(C)n(-c4ccccc4)c3=O)nc21,"inconclusive: 22.4 µM [quencher, side channel, single point]",
COc1ccc(OCCOC(=O)c2cccc(-n3cnnn3)c2)cc1,"inconclusive: 39.8 µM [quencher, side channel, single point]",
COc1cc(/C=N/NC(=O)c2cc3c(ccc4ccccc43)o2)cc(OC)c1O,"inconclusive: 50.1 µM [inhibitor, single point]",
CCc1ccc(S(=O)(=O)/N=C2\C=C(Nc3ccc(O)cc3)C(=O)c3ccccc32)cc1,"inconclusive: 14.1 µM [quencher, side channel, partial curve]",
CCOC(=O)c1cnn2c(N)c(C#N)nnc12,"inconclusive: 28.2 µM [quencher, side channel, partial curve]",
CCN(CC)c1ccc(NC(=O)CCS(=O)(=O)c2cccc3nsnc23)c(C)c1,"inconclusive: 25.1 µM [quencher, partial curve]",
C(=N\NCc1ccccc1)/c1ccc2nccnc2c1,"inconclusive: 10 µM [quencher, side channel, partial curve]",

SMILES,Potency,"activity change, negative = inhibition"
Fc1ccccc1/C=N/Nc1ncnc2ccccc12,"inconclusive: 20 µM [quencher, side channel, partial curve]",
Cc1ccc(-c2csc(NC(=O)CSC3=NCCS3)n2)cc1,"inconclusive: 79.4 µM [inhibitor, single point]",
CCc1nnc(NC(=O)CSc2nnc3nc(C)cc(C)n23)s1,,inactive: -3.36%
Cn1ncc([N+](=O)[O-])c1C(=O)Nc1ccn(Cc2ccccc2F)n1,"inconclusive: 20 µM [quencher, side channel, single point]",
Cc1cc(NC(=O)c2cc(-c3ccncc3)nc3c(C)cccc23)no1,"inconclusive: 39.8 µM [quencher, side channel, single point]",
Cc1ccc(-c2nnc(SCC(N)=O)nc2-c2ccc(C)cc2)cc1,"inconclusive: 12.6 µM [quencher, side channel, partial curve]",
O=c1c2ccccc2nc(COc2ccccc2)n1/N=C/c1ccc(O)cc1O,,inactive: -7.05%
Cc1ccc2c(c1)c1c(n2C)-c2[nH]ncc2CC1,"inconclusive: 0.631 µM [quencher, side channel, full curve, poor fit]",
COC(=O)c1ccc(NC(=O)c2cc[n+](Cc3ccccc3)cc2)cc1,"inconclusive: 5.62 µM [quencher, side channel, partial curve]",
O=C1CCCC2=C1C(c1ccccc1)NC(=S)N2 (stereo unspecified),,inactive: 2.9%
CN(C)C1=NC(=O)/C(=C/c2ccc(-c3ccc(S(N)(=O)=O)cc3)o2)S1,"inconclusive: 15.8 µM [quencher, side channel, partial curve]",
Cc1cc(N2CCN(C)CC2)nc2ccc(NC(=O)CCC(=O)N3CCN(c4ccc([N+](=O)[O-])cc4)CC3)cc12,"inconclusive: 15.8 µM [quencher, side channel, partial curve]",
O=C(CCc1ccccc1)Nc1ccc(F)c([N+](=O)[O-])c1,"inconclusive: 31.6 µM [quencher, side channel, partial curve]",
COc1ccc2cc(CCNC(=O)c3cccc([N+](=O)[O-])c3)c(=O)[nH]c2c1,"inconclusive: 14.1 µM [quencher, side channel, partial curve]",
CCCN(Cc1ccccc1)C(=S)Nc1ccc(SC(F)F)cc1,,inactive: -2.54%
CC(C)(C)OC(=O)NNc1c2ccccc2nc2ccccc12,"inconclusive: 17.8 µM [quencher, side channel, partial curve]",
COc1ccc(N(C)C(=O)Nc2ccc3nsnc3c2)cc1,"inconclusive: 15.8 µM [quencher, side channel, partial curve]",
S=C(Nc1ccc2c(c1)OCO2)Nc1ccc2c(c1)OCO2,"inconclusive: 5.62 µM [quencher, side channel, single point]",
Cn1ccnc1SCC(=O)Nc1ccc([N+](=O)[O-])cn1,"inconclusive: 28.2 µM [quencher, side channel, partial curve]",
O=C(/C=C/c1ccc([N+](=O)[O-])cc1)N1CCN(S(=O)(=O)c2cccs2)CC1,"inconclusive: 4.47 µM [quencher, side channel, partial curve]",
COc1ccc(CNC(=O)C(C#N)c2nc3ccccc3nc2N2CCN(C)CC2)cc1 (stereo unspecified),,inactive: 9.26%

SMILES,Potency,"activity change, negative = inhibition"
O=c1oc2c(CN3CCCCCC3)c(O)ccc2cc1-c1nc2ccccc2[nH]1,"inconclusive: 12.6 µM [quencher, partial curve]",
CN(CCC#N)C(=O)COC(=O)c1ccc2c(c1)C(=O)N(C1CCCCC1)C2=O,"inconclusive: 4.47 µM [quencher, side channel, full curve]",
C[C@H](NC(=O)OC(C)(C)C)C(=O)N/N=C/C1=Cc2ccccc2OC1,"inconclusive: 31.6 µM [quencher, side channel, partial curve]",
CSc1nnc(-c2cc(Br)ccc2N=Cc2c(C)[nH]n(-c3ccccc3)c2=O)c(=O)[nH]1,"inconclusive: 17.8 µM [quencher, side channel, partial curve]",
Cc1ccc(S[C@@H](CCN2CC[C@H](C(C)(C)C)CCC2=O)c2ccccc2)cc1,,inactive: -2.7%
COC(=O)c1ccc(NC(=O)c2ccc3nc(C)sc3c2)cc1,"inconclusive: 31.6 µM [fluorescent, side channel, single point]",
Fc1c(F)c(C(F)(F)F)c(F)c(F)c1N1CCN(c2ccc3nnc(C(F)(F)F)n3n2)CC1,"inconclusive: 3.55 µM [fluorescent, side channel, single point]",
Cc1ccccc1-c1nc(-c2ccccn2)no1,,inactive: -5.89%
O=S(=O)(c1cccs1)N1CN(CC2CCCO2)c2nc3ccccc3nc21 (stereo unspecified),"inconclusive: 39.8 µM [quencher, side channel, single point]",
CSc1nnc(NC(=O)c2nc(S(=O)(=O)Cc3cccc(C)c3)ncc2Cl)s1,,inactive: 8.7%
CCOC(=O)c1cnc(-n2nc(C)cc2C)nc1N(CC)CC,,inactive: -0.828%
CCN(c1ccccc1)S(=O)(=O)c1ccc(NC(=O)c2nc(S(C)(=O)=O)ncc2Cl)cc1,,inactive: 0.874%
CCOC(=O)CC(=O)CSc1nc2ccc(C)cc2cc1C#N,"inconclusive: 25.1 µM [quencher, side channel, partial curve]",
NS(=O)(=O)c1ccc(CCNC(=O)/C=C/c2ccc([N+](=O)[O-])cc2)cc1,"inconclusive: 15.8 µM [quencher, side channel, partial curve]",
CC(C)N1CCc2c(sc(NC(=O)c3ccc4ccccc4c3)c2C(N)=O)C1,"inconclusive: 28.2 µM [quencher, side channel, partial curve]",
O=C(NCC1CCCO1)c1ccc(NC(=O)c2ccc([N+](=O)[O-])cc2)cc1 (stereo unspecified),"inconclusive: 10 µM [quencher, side channel, partial curve]",
COc1ccc(-c2cc(-c3ccccc3)nc(NN)n2)cc1OC,,inactive: -6.28%
CCOC(=O)c1ccc(NS(=O)(=O)c2cc3c(cc2C)NC(=O)CO3)cc1,,inactive: 1.64%
CC(=O)c1c(COC(=O)c2ccco2)nc2ccccc2[n+]1[O-],"inconclusive: 15.8 µM [quencher, side channel, partial curve]",
